Laboratory results published in publication PMC6919601, “Identification of Plasmodium dipeptidyl aminopeptidase allosteric inhibitors by high throughput screening” (PLoS ONE, 2019).
Screen size: about 110,000 compounds; about 230 (0.21%) showed an effect of 50% or more. This is one part of the list.

These molecules were tested against DPAP1 (Plasmodium falciparum, UniProt Q8IIJ9) (assay: primary screen, percent inhibition; read by cleavage of a fluorogenic dipeptide substrate; higher = more effect of the substance).
Chain of DPAP1 (Q8IIJ9 whole entry, looked up): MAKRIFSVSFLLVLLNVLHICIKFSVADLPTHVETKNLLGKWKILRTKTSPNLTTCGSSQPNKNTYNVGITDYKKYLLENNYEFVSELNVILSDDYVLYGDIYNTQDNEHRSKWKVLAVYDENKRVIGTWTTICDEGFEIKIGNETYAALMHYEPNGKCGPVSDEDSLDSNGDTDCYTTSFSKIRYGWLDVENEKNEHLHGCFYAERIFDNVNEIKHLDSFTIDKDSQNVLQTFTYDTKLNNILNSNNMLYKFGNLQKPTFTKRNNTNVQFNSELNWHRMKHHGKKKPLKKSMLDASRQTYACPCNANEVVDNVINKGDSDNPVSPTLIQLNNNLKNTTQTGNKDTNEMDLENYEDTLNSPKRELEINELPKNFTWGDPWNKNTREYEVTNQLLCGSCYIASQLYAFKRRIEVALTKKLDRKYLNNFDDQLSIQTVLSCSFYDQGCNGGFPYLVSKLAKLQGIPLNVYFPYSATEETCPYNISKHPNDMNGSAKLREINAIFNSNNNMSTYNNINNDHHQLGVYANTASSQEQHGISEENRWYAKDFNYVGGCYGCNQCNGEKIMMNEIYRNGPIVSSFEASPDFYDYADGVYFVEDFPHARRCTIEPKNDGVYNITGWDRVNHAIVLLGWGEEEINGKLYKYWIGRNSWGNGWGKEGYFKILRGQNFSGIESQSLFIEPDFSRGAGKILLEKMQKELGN
Design: species or system P. falciparum D10 trophozoite lysates; single well
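Note: 30 min substrate incubation versus DMSO and 10 µM JCP410 controls.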

Row | Compound | % Inhibition @ 10 uM [%]
1 | CC1Oc2ccc(C3=NNC(=O)CC3)cc2NC1=O (stereo not shown) | -0.123
2 | CCc1ccccc1NC(=S)NC(=O)c1ccc(C)cc1 | -1.62
3 | CCc1ccc(C2c3c(oc4ccccc4c3=O)C(=O)N2c2nc(C)c(C(=O)OC)s2)cc1 (stereo not shown) | -1.86
4 | CC(CC(NC(=O)c1ccc(-c2ccccc2Cl)cc1)C(=O)NCC#N)c1ccccc1 (stereo not shown) | 0.174
5 | CC(CCc1ccc(O)cc1)N1CCc2ccccc2C1 (stereo not shown) | 5.37
6 | CS(=O)(=O)N(CC(=O)N1CCOCC1)c1cccc(Cl)c1 | 3.24
7 | CC(C)C(NS(=O)(=O)c1cccc2nsnc12)C(=O)Nc1nc2ccc(Cl)cc2s1 (stereo not shown) | -0.465
8 | O=C(CN1C(=O)c2ccccc2S1(=O)=O)N1CCCC1 | -4.19
9 | CN(C(=O)c1cccc(C(=O)N(C)c2ccc(N)cc2)c1)c1ccc(N)cc1 | -4.96
10 | CN1CCN(CC(=O)Nc2ccc(OC(F)(F)F)cc2)CC1 | 4.09
11 | CCn1nc(C)c(C2C(C#N)=C(N)Oc3[nH]nc(C)c32)c1C (stereo not shown) | -3.63
12 | CC/N=C1\S/C(=C\c2cc(Br)c(O)c(OC)c2)C(=O)N1CC | -3.01
13 | COc1ccc(-c2c(C)nn3c(N)c(C#N)cnc23)cc1OC | -1.11
14 | Cc1ccccc1CN1CCN(c2ccccc2)CC1 | -1.92
15 | Cc1cc(C)cc(NC2=C(Cl)C(=O)N(c3ccccc3)C2=O)c1 | 1.03
16 | COCCCNC(=O)c1cc2c(=O)n3ccccc3nc2n(C2CCCCC2)c1=N | 0.279
17 | Cc1ccccc1CNC(=O)c1oc2ccc3c(c2c1C)C(O)CC(C)(C)O3 (stereo not shown) | 0.107
18 | Cc1ccc(NC(=O)c2ccccc2Br)cc1C | -1.22
19 | O=C(NCc1cccnc1)C1CCN(c2nc3ccccc3n3cccc23)CC1 | -4.74
20 | O=C(Nc1ccccc1O)c1ccc(Br)c(S(=O)(=O)N2CCCCC2)c1 | -2.22
21 | CC[n+]1c(C)n(CC(O)COc2ccccc2C)c2ccccc21 (stereo not shown) | 0.147
22 | CN(CCc1ccccn1)Cc1cccc(Cl)c1 | -1.05
23 | Cc1ccc(CC(=O)Nc2nc3c(s2)C(=O)CC(C)(C)C3)cc1 | -2.8
24 | O=C(NCCCN1CCCC1)C1CCN(Cc2cnn(-c3ccccc3)c2-n2cccc2)CC1 | -1.08
25 | O=S(=O)(c1ccc2c(c1)Cc1ccccc1-2)N1CCSC1 | -3.26
26 | O=C(O)CCc1c(-c2ccccc2)cc2ccccn12 | 0.315

Row | Compound | % Inhibition @ 10 uM [%]
27 | COc1cccc(CN2CCN(Cc3cc(OC)cc(OC)c3)CC2)c1 | -5.26
28 | O=S(=O)(Nc1cc(Cl)ccc1Cl)c1cc(Cl)ccc1Cl | 5.09
29 | Cc1ccc(C)c(OCC(=O)Nc2nc3ccccc3s2)c1 | 2.17
30 | Cc1ccc(CCNC(=O)C2CCCN(Cc3nc(-c4ccc(Cl)cc4)oc3C)C2)cc1 (stereo not shown) | -2.85
31 | CCOC(=O)N1CCN(C(=O)CSc2nnc(-c3ccccc3C)o2)CC1 | -1.67
32 | CCCOc1ccc(Cc2nn3c(=O)/c(=C\c4ccccc4F)sc3nc2=O)cc1 | 1.23
33 | CSc1nc2n(n1)C(c1cccc(Br)c1)C1=C(O)CCCC1=N2 (stereo not shown) | -5.25
34 | Cc1c(C(=O)O)oc2ccc3c(c12)C(=O)CC(C)(c1ccc(F)cc1)O3 (stereo not shown) | -3.53
35 | Cc1ccnc(NC(=O)Cc2noc3ccccc23)c1 | 1.51
36 | C=CCOc1ccc(/C=C2/SC(N3CCOCC3)=NC2=O)cc1 | -2.88
37 | CCCCCn1cnc2sc(CC)cc2c1=O | -12.6
38 | O=C(Cn1ncc2c3ccccc3n(Cc3ccccc3)c2c1=O)NCCCc1ccccc1 | 0.137
39 | O=C(c1ccco1)N1CCN(C(=O)C2c3ccccc3C(=O)N3CCc4ccccc4C23)CC1 (stereo not shown) | 2.91
40 | COc1ccc(N(CC(=O)Nc2ccccc2F)S(C)(=O)=O)cc1 | -3.25
41 | Brc1ccc(OCCCCN2CCCC2)cc1 | -2.12
42 | Cc1ccc(O)c(C(CC(=O)NC2CCCCC2)c2ccccc2)c1 (stereo not shown) | -0.0626
43 | N#CC1=C(N)Oc2cc(N)ccc2C1c1cccc(C(F)(F)F)c1 (stereo not shown) | 6.8
44 | CCCc1nc2c(=O)n(C)c(=O)nc-2n(C)n1 | 3.77
45 | COc1cccc(OCCOCCN2CCCC2)c1 | -0.817
46 | CCCOc1ccccc1/C=c1\sc2nc(C3COc4ccccc4O3)nn2c1=O (stereo not shown) | 1.91
47 | O=c1c2cc3c(=O)n(-c4ccccn4)c(=O)c3cc2c(=O)n1-c1ccccn1 | 3.34
48 | CCOc1ccc(-c2cc(C(=O)NC(C)C)c3ccccc3n2)cc1 | 0.795
49 | CCCn1c(CCCNC(=O)COC)nc2ccccc21 | 0.121
50 | OCC1CCCN(Cc2ccc(Br)o2)C1 (stereo not shown) | 2.65
51 | Nc1ccc(C(c2ccccc2)c2ccc(N)c(Cl)c2)cc1Cl | 11.7
52 | N#CC1(NC(=O)[C@H](CC2CCCCC2)N[C@H](c2ccco2)C(F)(F)F)CC1 | -1.5

Row | Compound | % Inhibition @ 10 uM [%]
53 | C=CCSc1nc(O)c2cnn(-c3ccccc3)c2n1 | -0.00718
54 | Cc1c(C(c2cccc(Br)c2)c2c(C)n(C)n(-c3ccccc3)c2=O)c(=O)n(-c2ccccc2)n1C | 0.467
55 | CC(Sc1nnnn1-c1ccccc1)C(=O)NC(c1ccccc1)c1ccccc1 (stereo not shown) | -4.91
56 | CC1NC2(C(=O)N(C/C=C\c3ccccc3)c3ccccc32)C2C(=O)N(Cc3ccccc3)C(=O)C12 (stereo not shown) | -1.57
57 | NS(=O)(=O)c1ccc(NC(=O)Nc2ccc(Cl)c(Cl)c2)cc1 | -0.333
58 | COc1ccc(CCNC(=O)CN2C(=O)c3ccccc3S2(=O)=O)cc1OC | 8.68
59 | O=C(NCCCCc1ccccc1)NC1CCCCC1 | 1.88
60 | Cc1ccccc1N1CCN(C(=O)c2ccccc2C(=O)O)CC1 | 5.44
61 | Cc1sc(NC(=O)Cn2nc(C(F)(F)F)c(Br)c2C)c(C(N)=O)c1C | 0.83
62 | COc1ccc(CN2CCN(Cc3ccccc3C)CC2)c(OC)c1OC | -3.13
63 | CC(C)(C)c1ccc(S(=O)(=O)NCc2ccc(C(=O)NCc3ccccn3)cc2)cc1 | -3.41
64 | Cc1ccc2c(N)c(C(=O)c3ccccc3)sc2n1 | -2
65 | C=CCN1CCN(c2ccncc2S(=O)(=O)NC)CC1 | 0.245
66 | CCOc1ccc(-c2nnc(SCC(=O)N3CCOCC3)o2)cc1 | 1.3
67 | Cc1nn(CC(=O)NCCCc2ccccc2)c(=O)c2cc3sccc3n12 | 1.8
68 | CSc1ccc(NC2CCN(Cc3ccccc3)CC2)cc1 | -9.49
69 | CCN(CC)C1=NC(C(F)(F)F)(C(F)(F)F)N=C(c2ccc(OC)cc2)O1 | -3.53
70 | CC(NC(=O)c1cccc(F)c1)C(c1cccs1)N1CCN(C)CC1 (stereo not shown) | 2.34
71 | Cn1ncc(Br)c1C(=O)N1CCN(C(=O)c2ccco2)CC1 | 12.2
72 | CC(=O)Nc1cccc2c1C(=O)N(c1ccccc1C)C2=O | -1.96
73 | CC1CCCN(c2ncnc3c2cnn3-c2ccc(Cl)cc2)C1 (stereo not shown) | -7.06
74 | Cc1cc(C)c(OCCOCCN2CCNCC2)c(C)c1 | -4.14
75 | COCc1cc(C2SCC(=O)Nc3c2c(O)nn3C2CCOC(C)(C)C2)ccc1OC (stereo not shown) | -5.91
76 | Cc1ccsc1CN1CCCN(C)CC1 | 4.57
77 | O=C(/C=C/c1ccccc1)NCC1CCCO1 (stereo not shown) | -0.414
78 | CCOc1ccccc1CNCc1c(C(=O)O)n(CC)c2cc(C)ccc12 | -3.6

Row | Compound | % Inhibition @ 10 uM [%]
79 | Cc1c(CN2CC=C(c3ccc(F)cc3)CC2)c(=O)n(-c2ccccc2)n1C | -4.95
80 | Cc1[nH]c2ccccc2c1C(=O)/C=C/c1ccc(Br)cc1 | 13.6
81 | O=C(Nc1ccc(F)cc1)c1ccccc1C(=O)OCC(Cl)=C(Cl)Cl | 1.7
82 | COc1ccc(C(=O)c2oc3ccccc3c2NC(=O)c2ccccc2F)cc1 | -1.11
83 | COc1cc(CN2CCC3(C=Cc4ccccc43)CC2)cc(OC)c1O | -3.42
84 | O=C(NC1CCN(Cc2ccccc2)CC1)C1CCCN(c2ncnc3c2nc2n3CCCCC2)C1 (stereo not shown) | 1.19
85 | CCOc1ccc(NC(=O)c2ccc(Br)o2)cc1 | -2.09
86 | CCC(C)C(=O)Nc1ccc(-c2nc3ccccc3[nH]2)cc1 (stereo not shown) | -4.7
87 | COc1ccc2c(c1)c(=O)oc1cc3oc4c(c3cc12)CCCC4 | 2.54
88 | CC(C)CCNC(=O)CSc1nc2cccnc2[nH]1 | -1.99
89 | NCC1c2ccccc2C=Cc2ccc(Cl)cc21 (stereo not shown) | -6.37
90 | CCC(=O)NC(C)c1nc2ccccc2n1Cc1cc(C)ccc1C (stereo not shown) | 2.83
91 | O=C(Nc1cccc(O)c1)c1ccc(Oc2ccc(C(=O)Nc3cccc(O)c3)cc2)cc1 | -1.2
92 | Cc1nn(-c2ccccc2)c(-n2cccc2)c1C(=O)NCC(C)c1ccccc1 (stereo not shown) | 0.137
93 | CCOc1ccc(N2C(=O)c3ccccc3NC2c2cc(OC)c(OCC(N)=O)cc2Cl)cc1 (stereo not shown) | -3.5
94 | C=CCNC(=O)c1c(C)c(C(=O)OCC)n(C)c1C | 1.72
95 | CN(CCc1ccccc1)Cc1ccccn1 | -3.37
96 | Cn1ncc(Br)c1C(=O)NCc1ccc2c(c1)OCO2 | -2.84
97 | NC(=O)NC(=O)CSc1ncnc2sc3c(c12)CCCC3 | 5.29
98 | CCC(=O)Nc1ccc(OCc2nc3ccccc3s2)cc1 | -1.82
99 | Cn1cc(CNC(=O)c2cc(-c3ccccc3)nc3ccc(Br)cc23)cn1 | -1.95
100 | COc1ccc(C2=NC(=O)/C(=C\c3cccc(F)c3)O2)cc1 | 0.413
101 | COc1cccc(OCCCCN2CCCC2)c1 | -3.42
102 | C1CSC2(N1)C1CC3CC2CC(C1)C31NCCS1 (stereo not shown) | 1.29
103 | CCCNC(=O)c1ccc(C2SCC(=O)N2CCc2ccccc2)cc1 (stereo not shown) | -2.76
